42 compounds from ChEMBL document CHEMBL4888484, “Replenishing the malaria drug discovery pipeline: Screening and hit evaluation of the MMV Hit Generation Library 1 (HGL1) against asexual blood stage Plasmodium falciparum ,using a nano luciferase reporter read-out” (2022) can be followed below.

Structures are written as SMILES. About 540 (0.36%) of roughly 150,000 compounds showed an effect of 50% or more. The list shows a part of the results.

For the experiment, the system named is Plasmodium falciparum. As to the kind of experiment: Primary screen in NF54 nanoGlo assay, in single point, at 2uM, 72h; a lower Z score goes with more inhibition. Format: functional, Erythrocyte. The following applies: timepoint 72 hour.
By % Inhibition is commonly meant the change of the read-out against control, counted positive when it falls. In the case of `CC1(C)CN(C(=O)C2(c3ccccc3)CCOCC2)C1(C)C`, the “% Inhibition” value came out at 31% and the Z score was -3.5.

As to `CN(CCF)c1cc(=O)n(C)c(=O)n1C`, the “% Inhibition” value was -9% and the Z score was determined as 0.89.

On to `CN(C)[C@H]1CCN(C(=O)c2cc(F)cc(Cl)c2)C[C@H]1CCCO`, for which the “% Inhibition” value was -4% and the Z score was found to be 0.71.

Turning to `O[C@@H]1C[C@@](CNCc2cccc(Cl)c2)(COc2cccnc2)C[C@@H]1O`, the “% Inhibition” value is -9% and the Z score worked out at 1.17.

As to `O=C1CO[C@H]2CCN(C(=O)NCCc3ccc(Cl)s3)C[C@@H]2N1`, the “% Inhibition” value is on record as -1% and the Z score is recorded as 0.16.

As to `CCn1cc(Br)c(C(=O)N[C@@H](C)c2ncc(C)s2)n1`, the “% Inhibition” value is given as -12% and the Z score worked out at 2.4.

`CCCCNC(=O)N[C@@H](C)c1nccc(N)n1`: the “% Inhibition” value is -6% and the Z score was 0.85.

For `C=CCN(C(=O)[C@@H]1CCCO1)c1nc2c(s1)CCCC2`, the “% Inhibition” value is listed as -3% and the Z score stood at 0.48.

For `CCOC(=O)N1CCN(c2nc3cc(Cl)ccc3cc2CN(C(=O)c2ccc3c(c2)OCO3)C2CC2)CC1`, the “% Inhibition” value stood at 1% and the Z score was -0.07.

With `O=C(Nc1ccccc1C(F)(F)F)N1C[C@@H]2NCCO[C@H]2C1`, the “% Inhibition” value is on record as -2% and the Z score is given as 0.37.

With `O=C(Cn1nnc2ccccc21)N(Cc1ccccc1)C1(C(=O)Nc2ccc3c(c2)OCO3)CCCCC1`, the “% Inhibition” value was determined as 50% and the Z score was -5.71.

Take `Cc1c(C(=O)N2CCC[C@H]2CO)sc2ncnc(NCc3ccccc3F)c12`: the “% Inhibition” value is -15% and the Z score is 1.97.

With `CC1CCN(Cc2ncc[nH]2)CC1n1ccnc1` (centres undefined), the “% Inhibition” value is recorded as -13% and the Z score amounted to 1.96.

On to `CCCOc1ccc(CN2CC3(C2)CN(C)C(=O)O3)cc1`, for which the “% Inhibition” value is on record as 1% and the Z score is reported as -0.18.

As to `Cc1cc(C)n([C@@H](C)C(=O)N(Cc2ccccc2)C2CC2)n1`, the “% Inhibition” value stood at 7% and the Z score was -0.78.

Regarding `O=C1COc2ccc(-c3ccc(C(=O)NC[C@H]4CCCO4)cc3)cc2N1`, the “% Inhibition” value was -16% and the Z score is 1.39.

As to `O=C([C@@H]1COc2ccccc2O1)N1CCN(c2ccc(-n3cncn3)nn2)CC1`, the “% Inhibition” value turned out to be 11% and the Z score was -1.36.

As for `O=C(CC1(N2Cc3ccccc3C2=O)CCOCC1)N1CCN(c2cccc(Cl)c2)CC1`, the “% Inhibition” value is recorded as -13% and the Z score is reported as 1.64.

Regarding `C[C@@H](C(=O)N(C)CCCc1nccn1C)N(C)C`, the “% Inhibition” value is given as -6% and the Z score is given as 1.11.

Take `C=CC[C@@H](C(=O)NCc1ccc(O)c(OC)c1)N(C)C`: the “% Inhibition” value is 3% and the Z score was -0.45.

For `C=CCN1C[C@H]2CN(C(=O)Cc3ccc(C)c(F)c3)C[C@@]2(C(=O)O)C1`, the “% Inhibition” value is given as 6% and the Z score is reported as -1.07.

In the case of `Cc1n[nH]nc1C(=O)N[C@H]1C[C@@H](c2cc(=O)[nH]c(C3CC3)n2)C1`, the “% Inhibition” value is reported as -16% and the Z score came out at 1.8.

For `Cc1cc(C(=O)N2CCN(S(=O)(=O)c3ccccc3)CC2)on1`, the “% Inhibition” value is given as -2% and the Z score came out at 0.29.

In the case of `Cc1ccc(-n2nc(C(=O)NC3CC3)c(=O)n(Cc3cccc(C)c3)c2=O)cc1`, the “% Inhibition” value is -10% and the Z score is listed as 1.56.

Take `Cn1cc(NC(=O)NCC2CC23CCc2ccccc23)cn1` (centres undefined): the “% Inhibition” value is -14% and the Z score is reported as 1.94.

As to `Cn1ccnc1CN1CCCC12CCN(c1ccc(C(F)(F)F)cn1)CC2`, the “% Inhibition” value turned out to be 15% and the Z score was -2.

With `O=C(c1ccn(C(F)F)n1)N(CCc1ccccc1)Cc1cccnc1`, the “% Inhibition” value was -16% and the Z score was determined as 1.6.

In the case of `Cc1nn(C)c(C)c1S(=O)(=O)NC[C@H]1Cn2cccc2CN1Cc1ccccc1`, the “% Inhibition” value is on record as -1% and the Z score was 0.22.

With `O=c1[nH]c(N2CCOCC2)nc2nccc(-c3ccc(F)cc3)c12`, the “% Inhibition” value is -3% and the Z score was found to be 0.43.

`O=S(=O)(Cc1ccccc1)NC[C@@H](c1ccsc1)N1CCCCCC1`: the “% Inhibition” value is -7% and the Z score was 0.88.

In the case of `COc1ccc(C(C)=O)cc1CN1CCCN(C2CC2)CC1`, the “% Inhibition” value is -1% and the Z score is given as 0.11.

In the case of `O=C(NC1CCN(CC(F)(F)F)CC1)c1cccc2c1OCO2`, the “% Inhibition” value was found to be 2% and the Z score is -0.34.

For `O=C(Cn1nc2c3ccccc3ncn2c1=O)NCCc1ccc(Cl)cc1`, the “% Inhibition” value is given as -3% and the Z score is recorded as 0.42.

Consider `CCC(NC1CCCC(C(=O)NC(C)C)C1)c1cnn(C)c1` (centres undefined), for which the “% Inhibition” value is on record as -1% and the Z score is reported as 0.09.

As to `CCCc1nc(C(=O)N2CCc3[nH]c4c(Cl)cccc4c3C2)cs1`, the “% Inhibition” value stood at 11% and the Z score is listed as -1.49.

With `c1csc(Cn2ccnc2-c2ccnc3ccccc23)c1`, the “% Inhibition” value is -7% and the Z score came out at 0.91.

Consider `Cc1nc(CNC(=O)[C@H]2CCCN2S(=O)(=O)c2cccc(C(F)(F)F)c2)cs1`, for which the “% Inhibition” value is -4% and the Z score was found to be 0.55.

As for `CCOc1cc(Cl)ccc1NCc1noc([C@@H]2COc3ccccc3O2)n1`, the “% Inhibition” value was -6% and the Z score was 0.56.

`Cc1nc(N2CCN(C)CC2)cc(N2CCN(C(=O)c3ccccc3Cl)CC2)n1`: the “% Inhibition” value turned out to be 0% and the Z score stood at 0.05.

As for `Cc1ncnc(CN2CCOCC2)c1O`, the “% Inhibition” value is listed as -9% and the Z score was 1.16.

For `CCCCn1nc(CC(N)=O)nc1-c1cn2ccsc2n1`, the “% Inhibition” value was 6% and the Z score was -1.03.

For the compound `Cc1ccc(OC2(C(=O)O)CCN(CCCc3ccccc3)CC2)cc1`, the “% Inhibition” value is reported as -12% and the Z score was 1.4.
